Counter-ions that a name gives are not always drawn. About 30 (2%) of roughly 1,500 compounds showed activity.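 How the source made its calls: active = robust z-score below -2; a few such results were not called.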 Some of the results follow.

The test system of this assay is optoTopBP1 Flp-In 293 T-REx (HEK293) cells. Briefly: light-induced TopBP1 condensate (nuclear foci) count, plate-normalised robust z-score vs non-control wells; higher = more TopBP1 condensates (negative = condensation inhibitor), active = hit call of the paper. The note with it: 10 µM; incubation time 2 h.
`CN(CCOc1ccc(CC2SC(=O)NC2=O)cc1)c1ccccn1` (centres undefined) [Rosiglitazone Hydrochloride]: the “light-induced TopBP1 condensate (z-score)” value was inactive: -1.21.
For `COc1ccc(C[C@@H]2c3cc(OC)c(OC)cc3CC[N@+]2(C)CCC(=O)OCCCCCOC(=O)CC[N@@+]2(C)CCc3cc(OC)c(OC)cc3[C@H]2Cc2ccc(OC)c(OC)c2)cc1OC` [Cisatracurium besylate], the “light-induced TopBP1 condensate (z-score)” value was inactive: -1.56.
With `Nc1cc(-c2ccncc2)c[nH]c1=O` [Amrinone], the “light-induced TopBP1 condensate (z-score)” value is inactive: 0.329.
On to `N#Cc1ccc(Oc2ccc3c(c2)COB3O)cc1` [Crisaborole], for which the “light-induced TopBP1 condensate (z-score)” value was inactive: 0.347.
With `CC(N)C12CC3CC(CC(C3)C1)C2` (centres undefined) [Rimantadine Hydrochloride], the “light-induced TopBP1 condensate (z-score)” value was inactive: -0.685.
Consider `OCCOCCN1CCN(C(c2ccccc2)c2ccc(Cl)cc2)CC1` (centres undefined) [Hydroxyzine dihydrochloride], for which the “light-induced TopBP1 condensate (z-score)” value is inactive: 0.678.
As to `C=CC1=C(C(=O)O)N2C(=O)[C@@H](NC(=O)/C(=N\OCC(=O)O)c3csc(N)n3)[C@H]2SC1` [Cefixime], the “light-induced TopBP1 condensate (z-score)” value is inactive: 0.556.
Consider `Cc1cc(-n2c(=O)[nH]c(=O)n(C)c2=O)ccc1Oc1ccc(SC(F)(F)F)cc1` [Toltrazuril], for which the “light-induced TopBP1 condensate (z-score)” value is inactive: -0.166.
For `Cc1ccccc1N1C(=O)c2cc(S(N)(=O)=O)c(Cl)cc2NC1C` (centres undefined) [Metolazone], the “light-induced TopBP1 condensate (z-score)” value is inactive: 0.703.
The same measure for `COc1ccc2[nH]c([S+]([O-])Cc3ncc(C)c(OC)c3C)nc2c1` (centres undefined) [Omeprazole]: inactive: 0.46.
Turning to `CCOC(=O)[C@H](CCc1ccccc1)N[C@@H](C)C(=O)N1CCC[C@H]1C(=O)O` [Enalapril maleate], the “light-induced TopBP1 condensate (z-score)” value was inactive: -1.12.
For `CO/N=C(\C(=O)N[C@@H]1C(=O)N2C(C(=O)O)=C(C[N+]3(C)CCCC3)CS[C@H]12)c1csc(N)n1` [Cefepime hydrochloride], the “light-induced TopBP1 condensate (z-score)” value was inactive: 0.305.
The same measure for `CC(Oc1c(Cl)cccc1Cl)C1=NCCN1` (centres undefined) [Lofexidine]: inactive: -0.165.
As to `CC1=C(CC(=O)O)c2cc(F)ccc2/C1=C\c1ccc([S+](C)[O-])cc1` (centres undefined) [Sulindac], the “light-induced TopBP1 condensate (z-score)” value is inactive: -0.112.
On to `C[C@]12CC[C@@H]3c4ccc(O)cc4CC[C@H]3[C@@H]1C[C@@H](O)[C@@H]2O` [Estriol], for which the “light-induced TopBP1 condensate (z-score)” value is inactive: 0.355.
Take `CN(C)CCCO[C@@H]1[C@H]2OC(C)(C)O[C@H]2O[C@@H]1[C@H](O)CO` [Amiprilose hydrochloride]: the “light-induced TopBP1 condensate (z-score)” value is inactive: -0.123.
For `Cc1noc(NS(=O)(=O)c2ccc(N)cc2)c1C` [Sulfisoxazole], the “light-induced TopBP1 condensate (z-score)” value was inactive: 0.115.
As for `CCc1cccc2c3c([nH]c12)C(CC)(CC(=O)O)OCC3` (centres undefined) [Etodolac], the “light-induced TopBP1 condensate (z-score)” value is inactive: -0.0887.
As for `CC[N+](CC)(CC)CCC(O)(c1ccccc1)C1CCCCC1` (centres undefined) [Tridihexethyl chloride], the “light-induced TopBP1 condensate (z-score)” value was inactive: 0.252.
For `COc1ccc(-c2cc(=O)c3c(O)cc(O[C@@H]4O[C@H](CO[C@@H]5O[C@@H](C)[C@H](O)[C@@H](O)[C@H]5O)[C@@H](O)[C@H](O)[C@H]4O)cc3o2)cc1O` [Diosmin], the “light-induced TopBP1 condensate (z-score)” value was inactive: -0.578.
For `CCCCCCCN(CC)CCCC(O)c1ccc(NS(C)(=O)=O)cc1` (centres undefined) [Ibutilide fumarate], the “light-induced TopBP1 condensate (z-score)” value is inactive: 1.01.
The same measure for `c1ccc2[nH]c(-c3cscn3)nc2c1` [Tiabendazole]: inactive: -0.00966.
Turning to `CC1CS(=O)(=O)CCN1/N=C/c1ccc([N+](=O)[O-])o1` (centres undefined) [Nifurtimox], the “light-induced TopBP1 condensate (z-score)” value was inactive: 0.226.
As for `COc1ccc(C(=O)c2ccc(C)cc2)c(O)c1` [Mexenone], the “light-induced TopBP1 condensate (z-score)” value is inactive: 0.105.
Consider `COc1cc(C(=O)NC2CCCNC2)cc(OC)c1OC` (centres undefined) [Troxipide], for which the “light-induced TopBP1 condensate (z-score)” value was inactive: -0.997.
Regarding `C[C@]12CC[C@@H]3c4ccc(O)cc4CC[C@H]3[C@@H]1CCC2=O` [Estrone], the “light-induced TopBP1 condensate (z-score)” value was inactive: -1.46.
Regarding `CN(C)[C@@H]1C(O)=C(C(N)=O)C(=O)[C@@]2(O)C(O)=C3C(=O)c4c(O)ccc(Cl)c4[C@@](C)(O)[C@H]3C[C@@H]12` [Chlortetracycline hydrochloride], the “light-induced TopBP1 condensate (z-score)” value is inactive: 0.127.
Regarding `CC(=O)N(CC(C)C(=O)O)c1c(I)cc(I)c(N)c1I` (centres undefined) [Iocetamic acid], the “light-induced TopBP1 condensate (z-score)” value is inactive: -0.158.
In the case of `O=C(O)CCC(=O)Nc1ccc(S(=O)(=O)Nc2nccs2)cc1` [Succinylsulfathiazole], the “light-induced TopBP1 condensate (z-score)” value is inactive: 0.522.
As to `COc1cnc(NS(=O)(=O)c2ccc(N)cc2)nc1` [Sulfameter], the “light-induced TopBP1 condensate (z-score)” value was inactive: -0.26.
Take `Cc1cccc(CN2CCN(C(c3ccccc3)c3ccc(Cl)cc3)CC2)c1` (centres undefined) [Meclozine dihydrochloride]: the “light-induced TopBP1 condensate (z-score)” value is inactive: 0.405.
For the compound `CNCCC(Oc1ccccc1OC)c1ccccc1` (centres undefined) [Nisoxetine hydrochloride], the “light-induced TopBP1 condensate (z-score)” value is inactive: -1.06.
The value for `CCCCC(C)(O)C/C=C/[C@H]1[C@H](O)CC(=O)[C@@H]1CCCCCCC(=O)OC` (mixture of isomers) [Misoprostol] was inactive: 0.659.
On to `COc1ccccc1O` [Guaiacol], for which the “light-induced TopBP1 condensate (z-score)” value was inactive: 1.04.
As to `CCOC(=O)C1=C[C@]2(CC)CCCN3CCc4c(n1c1ccccc41)[C@@H]32` [Vinpocetine], the “light-induced TopBP1 condensate (z-score)” value is inactive: -1.24.
As to `COc1ccc2cc([C@@H](C)C(=O)O)ccc2c1` [(R) -Naproxen sodium salt], the “light-induced TopBP1 condensate (z-score)” value is inactive: 0.216.
On to `Nc1nc(=O)c2c([nH]1)NC[C@@H](CNc1ccc(C(=O)N[C@@H](CCC(=O)O)C(=O)O)cc1)N2C=O` [Folinic acid calcium salt], for which the “light-induced TopBP1 condensate (z-score)” value was inactive: 0.806.
As to `CC1(C)NC(=O)N(c2ccc([N+](=O)[O-])c(C(F)(F)F)c2)C1=O` [Nilutamide], the “light-induced TopBP1 condensate (z-score)” value was inactive: -0.806.
Consider `CCCCC(CC)CNC(=N)NC(=N)NCCCCCCNC(=N)NC(=N)NCC(CC)CCCC` (centres undefined) [Alexidine dihydrochloride], for which the “light-induced TopBP1 condensate (z-score)” value is inactive: -0.446.
The value for `COC(=O)[C@@H]1[C@H]2C[C@H]3c4[nH]c5ccccc5c4CCN3C[C@@H]2CC[C@@H]1O` [Yohimbine hydrochloride] was inactive: -0.184; that for `CCS(=O)(=O)CCn1c([N+](=O)[O-])cnc1C` [Tinidazole] was inactive: 0.108.
For the compound `O=C1CCc2cc(OCCCCc3nnnn3C3CCCCC3)ccc2N1` [Cilostazol], the “light-induced TopBP1 condensate (z-score)” value was inactive: -0.375.
The value for `C/C(=C(\CCOC(=O)c1ccccc1)SS/C(CCOC(=O)c1ccccc1)=C(/C)N(C=O)Cc1cnc(C)nc1N)N(C=O)Cc1cnc(C)nc1N` [Bisbentiamine] was inactive: -1.63.
Take `O=P(O)(O)C(Cl)(Cl)P(=O)(O)O` [Clodronate disodium]: the “light-induced TopBP1 condensate (z-score)” value is inactive: 0.665.
As to `CCCCOc1cc(C(=O)NCCN(CC)CC)c2ccccc2n1` [Dibucaine], the “light-induced TopBP1 condensate (z-score)” value is inactive: 0.666.
As to `CCC1=C(C)CN(C(=O)NCCc2ccc(S(=O)(=O)NC(=O)N[C@H]3CC[C@H](C)CC3)cc2)C1=O` [Glimepiride], the “light-induced TopBP1 condensate (z-score)” value is inactive: 1.52.
Take `OCc1cc(C(O)CNCCCCCCOCCCCc2ccccc2)ccc1O` (centres undefined) [Salmeterol]: the “light-induced TopBP1 condensate (z-score)” value is inactive: -0.58.
As to `O=C(O)Cc1sc(-c2ccccc2)nc1-c1ccc(Cl)cc1` [Fentiazac], the “light-induced TopBP1 condensate (z-score)” value was inactive: 0.683.
The value for `CC(=O)OCC(=O)[C@@]12N=C(C)O[C@@H]1C[C@H]1[C@@H]3CCC4=CC(=O)C=C[C@]4(C)[C@H]3[C@@H](O)C[C@@]12C` [Deflazacort] was inactive: -0.182; that for `Cc1nc2n(c(=O)c1CCN1CCC(c3noc4cc(F)ccc34)CC1)CCCC2` [Risperidone] was inactive: 0.778.
Take `CNCCC(Oc1ccc(C(F)(F)F)cc1)c1ccccc1` (centres undefined) [Fluoxetine hydrochloride]: the “light-induced TopBP1 condensate (z-score)” value is inactive: 0.51.
`CC(=O)Nc1ccc(CC(=O)O)cc1` [Actarit]: the “light-induced TopBP1 condensate (z-score)” value is inactive: -0.657.
As for `C[C@@H](CN1CC(=O)NC(=O)C1)N1CC(=O)NC(=O)C1` [Dexrazoxane hydrochloride], the “light-induced TopBP1 condensate (z-score)” value is inactive: -0.035.
With `CC(=O)N[C@H]1[C@H]([C@H](O)[C@H](O)CO)OC(C(=O)O)=C[C@@H]1NC(=N)N` [Zanamivir], the “light-induced TopBP1 condensate (z-score)” value was inactive: -0.513.
Consider `CCN1CC(CCN2CCOCC2)C(c2ccccc2)(c2ccccc2)C1=O` (centres undefined) [Doxapram hydrochloride], for which the “light-induced TopBP1 condensate (z-score)” value was inactive: -0.469.
The same measure for `O=C(c1cc(O)c(O)c(O)c1)c1ccc(O)c(O)c1O` [Exifone]: inactive: 0.683.
`CCCCNC(=O)NS(=O)(=O)c1ccc(C)cc1` [Tolbutamide]: the “light-induced TopBP1 condensate (z-score)” value was inactive: 0.285.
Turning to `O=C(O)c1cc(-c2ccc(F)cc2F)ccc1O` [Diflunisal], the “light-induced TopBP1 condensate (z-score)” value was inactive: -0.657.
The same measure for `CCOC(=O)OC(C)OC1=C(C(=O)Nc2ccccn2)N(C)S(=O)(=O)c2ccccc21` (centres undefined) [Ampiroxicam]: inactive: -1.41; for `CC(=O)[C@H]1CC[C@H]2[C@@H]3C[C@H](C)C4=CC(=O)CC[C@]4(C)[C@H]3[C@@H](O)C[C@]12C` [Medrysone]: inactive: 0.305; for `CCOc1ccccc1OCCN[C@H](C)Cc1ccc(OC)c(S(N)(=O)=O)c1` [(R)-Tamsulosin hydrochloride]: inactive: 0.258.
For the compound `CCn1cc(C(=O)O)c(=O)c2cnc(N3CCCC3)nc21` [Piromidic acid], the “light-induced TopBP1 condensate (z-score)” value was inactive: -0.517.
As for `O=S(=O)(O)CCS` [Mesna], the “light-induced TopBP1 condensate (z-score)” value was inactive: 0.139.
`CC(C)Nc1ncccn1` [Isaxonine]: the “light-induced TopBP1 condensate (z-score)” value is inactive: 1.54.
With `OCCN1C[C@H](O)[C@@H](O)[C@H](O)[C@H]1CO` [Miglitol], the “light-induced TopBP1 condensate (z-score)” value was inactive: 0.315.
For the compound `CC(=O)Oc1cc2c(s1)CCN(C(C(=O)C1CC1)c1ccccc1F)C2` (centres undefined) [Prasugrel], the “light-induced TopBP1 condensate (z-score)” value was inactive: -0.305.
The same measure for `Cn1cnc([N+](=O)[O-])c1Sc1ncnc2[nH]cnc12` [Azathioprine]: inactive: 0.922; for `CC(C)C(=O)Nc1ccc([N+](=O)[O-])c(C(F)(F)F)c1` [Flutamide]: inactive: -0.417; for `O=C(O)CCCC[C@@H]1SC[C@@H]2NC(=O)N[C@@H]21` [Biotin]: inactive: 0.446.

The values above are taken from the supplement of paper PMC12582362.
